# Assay results as given in article PMC4336329 (PLoS ONE, 2015).
# Screen size: about 310,000 compounds; about 14,000 (4.5%) showed an effect of 50% or more. Effects have a minus sign here. This is one part of the list.
# Target: human ether-à-go-go-related gene (hERG) potassium channel (human, UniProt Q12809)
# Assay: primary screen, population patch clamp on CHO cells stably expressing hERG
# 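Note: peak tail current of the secondary pulse compared with the same well before compound.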
# human ether-à-go-go-related gene (hERG) potassium channel, sequence (Q12809 whole entry, looked up): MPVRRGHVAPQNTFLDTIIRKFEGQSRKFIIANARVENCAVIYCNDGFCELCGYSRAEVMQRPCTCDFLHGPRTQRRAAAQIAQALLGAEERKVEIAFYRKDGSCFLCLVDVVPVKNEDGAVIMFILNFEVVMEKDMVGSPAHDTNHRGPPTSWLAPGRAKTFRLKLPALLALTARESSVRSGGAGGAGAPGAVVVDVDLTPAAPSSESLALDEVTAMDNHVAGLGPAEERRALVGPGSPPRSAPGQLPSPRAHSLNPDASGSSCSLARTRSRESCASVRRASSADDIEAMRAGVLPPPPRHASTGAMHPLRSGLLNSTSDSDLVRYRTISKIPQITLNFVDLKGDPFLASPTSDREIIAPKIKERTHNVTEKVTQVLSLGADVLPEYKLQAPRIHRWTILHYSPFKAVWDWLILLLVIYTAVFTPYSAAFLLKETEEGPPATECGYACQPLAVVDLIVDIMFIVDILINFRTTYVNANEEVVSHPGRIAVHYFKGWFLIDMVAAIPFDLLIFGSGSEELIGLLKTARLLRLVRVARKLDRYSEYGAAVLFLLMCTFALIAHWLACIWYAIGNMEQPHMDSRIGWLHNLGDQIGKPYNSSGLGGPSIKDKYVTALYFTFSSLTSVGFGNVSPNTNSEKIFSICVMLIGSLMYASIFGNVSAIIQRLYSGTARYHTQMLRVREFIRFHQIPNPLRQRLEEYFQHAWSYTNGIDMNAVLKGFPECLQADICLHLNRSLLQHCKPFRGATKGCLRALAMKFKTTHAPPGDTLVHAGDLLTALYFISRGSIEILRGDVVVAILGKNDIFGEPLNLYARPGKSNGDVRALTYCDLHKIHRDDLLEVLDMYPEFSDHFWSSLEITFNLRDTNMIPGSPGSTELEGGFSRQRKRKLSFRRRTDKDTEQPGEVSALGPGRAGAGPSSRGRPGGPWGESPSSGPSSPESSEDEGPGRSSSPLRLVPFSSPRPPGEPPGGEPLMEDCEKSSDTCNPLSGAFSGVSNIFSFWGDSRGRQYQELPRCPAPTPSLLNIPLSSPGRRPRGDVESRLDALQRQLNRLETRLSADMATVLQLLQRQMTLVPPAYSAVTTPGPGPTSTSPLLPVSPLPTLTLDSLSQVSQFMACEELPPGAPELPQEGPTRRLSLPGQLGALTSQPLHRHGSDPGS
row,Compound,"hERG current change (%, negative = inhibition) at 10uM"
1,C#CCNC(=O)C1=C[C@@H](c2ccc(C(F)(F)F)cc2)C[C@@H](OCCCCO)O1,-53.8%
2,COc1ccc(CC(=O)Nc2ccc(N3CCOCC3)cc2)cc1OC,15.4%
3,Nn1c(SCc2cn3ccccc3n2)nnc1-c1ccncc1,12%
4,Cc1cc2oc(C(=O)Nc3ccc(S(N)(=O)=O)cc3)c(C)c2cc1Cl,5.54%
5,CCC1CCC2(CC1)SCC(=O)N2c1ccccc1 (centres unmarked),5.31%
6,CCCC(=O)Nc1ccc(Cl)c(NC(=O)c2cccnc2Cl)c1,24.3%
7,CN(C)CCNS(=O)(=O)c1ccc(Cl)cc1,11%
8,COc1cc(C(=O)N2CCN(Cc3ccc4c(c3)OCO4)CC2)c([N+](=O)[O-])cc1OC,-10.4%
9,CC(=O)c1ccc(NC(=O)c2noc(C(C)C)c2[N+](=O)[O-])cc1,19.9%
10,COc1cc(C(=O)NCc2ccc(C(=O)NCC(OC)OC)cc2)cc(OC)c1OC,17.2%
11,COc1ccc(CC(=O)Nc2ccccc2C(=O)NCCc2ccccc2)cc1,20.9%
12,Cc1csc(N(C(=O)c2ccccc2F)c2ccccc2)n1,13.9%
13,CCC(=O)Nc1cccc(NC(=S)NC(=O)c2ccccc2Cl)c1,9.98%
14,CCOc1ncccc1C(=O)OCC(=O)Nc1ccc(-c2nc3ccc(C)cc3s2)cc1,16%
15,CCCCCNC(=O)c1ccc2c(=O)n(CCCN3CCCC3=O)c(=S)[nH]c2c1,-3.01%
16,Cc1cc(CNC(=O)c2cccc(OC3CCN(S(=O)(=O)N(C)C)CC3)c2)on1,0.225%
17,O=C(CCNC(=O)c1ccccc1)OCC(=O)c1ccccc1,23%
18,COC(=O)c1c(C(=O)OC)c(-c2ccc(C)cc2)n2c1CS(=O)(=O)C2,-18.1%
19,COc1cc(NC(=O)Cc2cccs2)cc(OC)c1,-1.87%

row,Compound,"hERG current change (%, negative = inhibition) at 10uM"
1,COc1ccccc1CNc1ncccn1.O=C(O)C(=O)O,23.6%
2,O=C(CCCCCn1c(=S)[nH]c2cc3c(cc2c1=O)OCO3)N1CCN(c2ccc(F)cc2)CC1,3.78%
3,O=C(O)c1cc(CN2CCOCC2)oc1-c1ccccc1,13.2%
4,COc1ccc(-n2c(SCC(=O)N3CCCC(C)C3)nnc2-c2cccnc2)cc1 (centres unmarked),-13.8%
5,O=C(O)c1cn(-c2ccc(F)cc2)c2cc(Cl)c(F)cc2c1=O,16%
6,Fc1ccc(C2NCCn3cccc32)cc1.O=C(O)/C=C/C(=O)O (centres unmarked),-3.11%
7,COc1ccc(Cn2nnnc2C(c2cc3ccc(OC)cc3[nH]c2=O)N2CCC(C)CC2)cc1 (centres unmarked),-24.2%
8,CN1CCN(CCC(=O)N/N=C/c2ccccc2F)CC1,12.1%
9,COc1ccc(C(=O)n2cc(C(C)=O)c3ccccc32)cc1,6.09%
10,Cc1cccc(C)c1OCc1cc(C(=O)N2CCN(c3ccccc3)CC2C)no1 (centres unmarked),7.3%
11,COc1ccc(CCN(C)C(=O)CCNC(=O)c2ccc(Br)cc2)cc1OC,-12.5%
12,CCOc1ccc(N(C(C)C(=O)N/N=C(\C)c2cccc(NC(=O)c3ccccc3)c2)S(C)(=O)=O)cc1 (centres unmarked),-19.4%
13,CNC(=S)N(Cc1cccs1)Cc1cc2ccc(OC)cc2[nH]c1=O,6.44%
14,CC(=O)N1Cc2ccccc2C(C)CC12CCCC2 (centres unmarked),-7.34%
15,CCn1c(CNC(=O)C2CCCCC2)cc2ccccc21,26%
16,CCCCNc1ccc(C(=O)Nc2cccc(C)n2)cc1[N+](=O)[O-],4.74%
17,O=C(O)CCn1nnc(-c2ccccc2)n1,8.06%
18,O=C(/C=C/c1ccco1)Nc1cccc(NC(=O)/C=C/c2ccco2)n1,-4.72%
19,O=C(NCCCCCCNC(=O)NCc1ccco1)NCc1ccco1,-2.97%

row,Compound,"hERG current change (%, negative = inhibition) at 10uM"
1,CC(C)(C)c1ccc(S(=O)(=O)N2CCC(N3CCCCC3)CC2)cc1,-36.4%
2,Cn1c(SCc2c(F)cccc2Cl)nc2ccccc2c1=O,18.1%
3,O=C(CN1C(=O)c2ccccc2S1(=O)=O)NCc1cccs1,0.969%
4,CCCCCc1nc2ccccc2c(=O)n1-c1ccc(Cl)cc1[N+](=O)[O-],2.95%
5,N#Cc1ccc(C23CC4(C2)[C@H](CN(Cc2ccc(-c5ccccc5)cc2)[C@@H]4c2ccccc2)C3c2ccc(Cl)nc2)cc1 (some centres unmarked),-4.31%
6,CC(NC(=O)c1ccccc1F)c1nnc(SCC(=O)Nc2nccs2)n1C (centres unmarked),7.9%
7,CCC1Oc2ccccc2N(CC(=O)NC2CCCCC2)C1=O (centres unmarked),11.8%
8,Cc1cc(C)n(S(=O)(=O)c2ccc(Cl)cc2)n1,13.4%
9,COc1ccc(N2CCN(S(=O)(=O)c3cc(C)ccc3OC)CC2)cc1,-2.29%
10,CCN1CCN(Cc2ccc(NC(=O)c3ccc(C)c(NC(=O)C[C@@H]4NC(=O)[C@H](Cc5ccccc5)NC4=O)c3)cc2C(F)(F)F)CC1,10.3%
11,COc1cc(NC(=S)Nc2ccc(OC(F)F)cc2)cc(OC)c1,-43.7%
12,Cc1cccc(NC(=O)C2CCN(S(=O)(=O)c3cccc4cccnc34)CC2)n1,-11.8%
13,O=C1CCCC2=C1C(c1ccco1)Nc1ccc3ccccc3c12 (centres unmarked),-6.02%
14,CCCN1CC(O)=C(C#N)C1=O,3%
15,Cc1ccc(NC2OC(C(O)CO)C(O)C2O)cc1[N+](=O)[O-] (centres unmarked),-1.06%
16,COC(=O)c1ccc(NC(=O)C(=O)c2cn(CC(=O)N3CCOCC3)c3ccccc23)cc1,-8.37%
17,O=C(/C=C\Nc1ccc2c(c1)OCO2)c1ccccn1,11%
18,Cn1c(=O)n(CC(=O)N2CCC3(CC2)OCCO3)c(=O)c2ccccc21,-1.21%
